PubChem BioAssay AID1466 (National Center for Advancing Translational Sciences (NCATS), 2008)
Out of some 200,000 compounds screened, about 10 (0.005%) were called active. Inconclusive means that the source gave no clear call. Such entries were picked first, then a sample of the others. Calls come from the whole dose curve; as a rule, active = well fitted inhibition curve with a large enough effect; inconclusive = small, poorly fitted or top-dose-only effect, or effect the other way, or another doubt; inactive = no such curve, though single readings can be large or run the other way. Where the call is inconclusive, the potency comes from a doubtful curve fit.

What follows are molecules tested against Lysosomal alpha-glucosidase (Homo sapiens) (UniProt P10253) (assay: qHTS Assay for Inhibitors of Human alpha-Glucosidase as a Potential Chaperone Treatment of Pompe Disease). Conditions: purified human GAA, 4-MU-alpha-glucoside fluorescence; activity change, negative = inhibition: at 76.9 µM (top of the series) unless noted.
Outline: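 Fluorescence at Ex 365/Em 440 nm from 4-methylumbelliferone reported enzyme activity after 20 min at room temperature. Reactions used 4 nM enzyme and 400 uM substrate at pH 5.0; curves fitted with the Hill equation.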
Potency is the fitted concentration of half-maximal effect; tags give direction and shape of the fitted curve.
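Throughout, for activity change, negative = inhibition: plate controls were uninhibited enzyme wells for no effect and no-enzyme background for full effect.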

Potency, inconclusive:
Cc1cc(N2CCCCC2)n2nc(C)c(-c3ccccc3)c2n1 56.2 µM [inhibitor, single point], O=S(=O)(Nn1cnnc1)c1ccccc1Cl 0.178 µM [activator, full curve, poor fit], O=c1oc2ccccc2cc1-c1ccc(O)cc1 11.2 µM [inhibitor, partial curve, poor fit], C1CNCCOCCNCCN1 2.82 µM [inhibitor, partial curve, poor fit], CSc1sc(-c2ccnc(SCCS(C)(=O)=O)n2)c(-c2ccccc2)c1C#N 35.5 µM [activator, partial curve], Cc1ccc(NC(=O)CN(C)CC(=O)Nc2ccccc2C(=O)Nc2ccccc2)cc1 56.2 µM [inhibitor, single point], COC(=O)c1ccccc1NC(=O)Nc1cccs1 56.2 µM [inhibitor, single point], Oc1ccccc1C1CC(c2cccs2)=NC(c2ccc(Cl)cc2)N1 (centres undefined) 28.2 µM [inhibitor, single point], Cc1ccc(S(=O)(=O)N2CCC(C(=O)N[C@@H](C)C(=O)Nc3ccc4c(c3)OCO4)CC2)cc1 50.1 µM [inhibitor, partial curve, poor fit], Cc1ccc2nsnc2c1NC(=S)NC(=O)c1ccco1 0.891 µM [inhibitor, full curve, poor fit], O=S(=O)(c1cnc(Cl)c(Br)c1)N1CCCCCC1 7.08 µM [inhibitor, single point], C#CCN1C(=O)C(O)(CC(=O)c2ccc(OC)c(OC)c2)c2ccccc21 (centres undefined) 6.31 µM [inhibitor, partial curve], OC(CNCCc1ccc(C(F)(F)F)cc1)COc1ccc2ccccc2c1 (centres undefined) 11.2 µM [inhibitor, partial curve], CCc1ccc(-n2c(Cn3nc(C(F)(F)F)cc3C)n[nH]c2=S)cc1 12.6 µM [inhibitor, single point], CCOC(=O)C(CC)/C(C)=N/NC(=O)c1ccccc1[N+](=O)[O-] (centres undefined) 50.1 µM [inhibitor, single point], CCCCNC(=O)c1ccc(/C=C2\Oc3ccccc3N(C)C2=O)cc1 10 µM [activator, partial curve, poor fit], COc1ccccc1C1CN(c2ccccc2)N=C1c1cccs1 (centres undefined) 39.8 µM [activator, partial curve], CCN1C(=S)SC(=O)C1=C1C=C(C)N(CCO)C(C)=C1 44.7 µM [inhibitor, single point], CCCc1cc(=O)oc2c(CN3CCOCC3)c(O)ccc12 31.6 µM [activator, partial curve], COc1ccccc1Nc1ncc(C(=O)Nc2ccc(OC)c(OC)c2)c2ccccc12 31.6 µM [activator, single point], C=CCn1nc(-c2ccccc2)c2c(C)onc2c1=O 56.2 µM [inhibitor, single point], CS(=O)(=O)N(CC(=O)NCCSC1CCCCC1)c1ccccc1 35.5 µM [inhibitor, single point], CCOC(=O)c1cc(C(C)=O)c(=O)n(C)c1N 0.158 µM [inhibitor, partial curve, poor fit], COCc1cc(C)nc(OCC(=O)N/N=C/c2cc(C)n(-c3c(C)cccc3C)c2C)c1C#N 12.6 µM [inhibitor, full curve], CCOC(=O)CSc1nc2ccccc2n1C(=O)OCC 7.94 µM [inhibitor, partial curve, poor fit], COc1ccc(Br)cc1CN(C)CC(=O)Nc1c(Cl)ccc(C)c1Cl 35.5 µM [inhibitor, single point], O=C(Nc1nc2ccccc2s1)C1=NN(c2ccccc2)C(=O)CC1 11.2 µM [inhibitor, partial curve, poor fit], Cc1c(O)c(CN2CCCC2)cc2c3c(c(=O)oc12)CCC3 39.8 µM [activator, partial curve]

Activity change, negative = inhibition, inactive:
CC1CCCC(NC(=O)Nc2cccs2)C1C (centres undefined) -21.9%, Cc1ccccc1CNC(=O)Nc1cccs1 5.1%, O=C(COC(=O)Cn1cnc2ccccc21)NCCCc1ccccc1 11.5%, O=C(c1cccc2cccc(O)c12)N1CCCCC1 5.29%, CCOC(=O)N=Nc1c2ccccc2c2nc3no[nH]c3nc12 3.06%, CCOc1cc2c(Cl)ncnc2c(OCC)c1OCC -5.72%

Activity change, negative = inhibition, inconclusive:
COc1ccc(C)cc1NC(=O)NC(C)c1ccncc1 (centres undefined) 11% [activator], CCOC(=O)c1c(C)oc2c1c(C(c1ccncc1)N1CCOCC1)c(O)c1ccccc12 (centres undefined) -15.6% [inhibitor], CCn1cc(CNC(=O)CCc2nnc(CCC3CCCCC3)o2)cn1 15.9% [activator], COCCNC(=O)CSCc1c(F)cccc1Cl -17.5% [inhibitor], C/C(CCc1ccco1)=N\NC(=O)CNc1cccc2ccccc12 22.6% [activator], CCc1cc(-c2n[nH]c(=S)n2Cc2ccccc2)cs1 -16.4% [inhibitor], CC(C(=O)Nc1ccccc1-c1ccccc1)N1CCN(C(=O)c2ccccc2)CC1 (centres undefined) 11.3% [activator], COC(=O)Cn1c(=NC(=O)c2nc3ccccc3s2)sc2cc(S(N)(=O)=O)ccc21 -15.3% [inhibitor], C=CCn1c(SCC(=O)Nc2cccc3ccccc23)nnc1-c1cnccn1 15.7% [activator], Cc1[nH]c2ccccc2c1C(=O)CSc1ccccn1 15.9% [activator]
